# According to the supplement of paper PMC4604168 (melanoma cell lines):
# The other results are listed elsewhere or left out. Many values rest on one well or one pass, so single values are uncertain.
# Key:
# Assay in all cases: cell count relative to DMSO control; melanoma cells; higher = more viable cells
# Conditions in all cases: library dose: standard library concentration; 72 h
# G361 = tested on: G361
# IPC-298 = tested on: IPC-298
# IST-MEL1 = tested on: IST-MEL1
# LB2518-MEL = tested on: LB2518-MEL
# LOXIMVI = tested on: LOXIMVI
# MEL-HO = tested on: MEL-HO
# MZ2-MEL = tested on: MZ2-MEL
# MeWo = tested on: MeWo
# RPMI7951 = tested on: RPMI7951
# RVH-421 = tested on: RVH-421
# SkMel28 = tested on: SkMel28
# SkMel2 = tested on: SkMel2
# SkMel30 = tested on: SkMel30
# SkMel5 = tested on: SkMel5
# UACC257 = tested on: UACC257
# UACC62 = tested on: UACC62
# WM115 = tested on: WM115
# WM1716 = tested on: WM1716
# WM3526 = tested on: WM3526
# 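Further: cells treated in 1,536-well plates, then fixed and DAPI-stained, with nuclei counted from automated high-throughput microscope images.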
Structure (SMILES),cell count (G361) [%],cell count (IPC-298) [%],cell count (IST-MEL1) [%],cell count (LB2518-MEL) [%],cell count (LOXIMVI) [%],cell count (MEL-HO) [%],cell count (MZ2-MEL) [%],cell count (MeWo) [%],cell count (RPMI7951) [%],cell count (RVH-421) [%],cell count (SkMel28) [%],cell count (SkMel2) [%],cell count (SkMel30) [%],cell count (SkMel5) [%],cell count (UACC257) [%],cell count (UACC62) [%],cell count (WM115) [%],cell count (WM1716) [%],cell count (WM3526) [%]
"COc1ccc(C2=N[C@@H](c3ccc(Cl)cc3)[C@@H](c3ccc(Cl)cc3)N2C(=O)N2CCNC(=O)C2)c(OC(C)C)c1 [Nutlin-3] + C/C(O)=C(\C#N)C(=O)Nc1cc(Br)ccc1Br [LFM-A13] (first compound 0.5 µM, partner dose 10 µM)",101,103,97,67.2,88.4,88.5,102,94.6,82.8,75.7,56.2,95.5,100,92.9,89.5,61.9,88,76.6,88.1
"O=C(Nc1cc(C(F)(F)F)cc(C(F)(F)F)c1)c1cc(Cl)ccc1O + Cc1cc(SCc2sc(-c3ccc(C(F)(F)F)c(F)c3)nc2C)ccc1OCC(=O)O [GW0742] (first compound 0.08 µM, partner dose 10 µM)",88.7,90.3,94.5,115,68.1,87.8,93.8,96.8,113,22.4,88.5,110,106,82.9,94.7,99.8,112,118,116
"Cc1cc(Nc2cc(N3CCN(C)CC3)nc(/C=C/c3ccccc3)n2)n[nH]1 + O=C(Oc1ccc([N+](=O)[O-])cc1)N1CCC(C(O)(c2ccc3c(c2)OCO3)c2ccc3c(c2)OCO3)CC1 [JZL184] (first compound 0.2 µM, partner dose 5 µM)",83.3,93.9,82.2,91.8,80.4,90.4,114,74.9,60.2,88.4,69.6,78.5,120,79.2,92.7,68.2,72.7,79.6,65.2
"Cc1cn(-c2cc(NC(=O)c3ccc(C)c(Nc4nccc(-c5cccnc5)n4)c3)cc(C(F)(F)F)c2)cn1 [nilotinib] + Cc1cc(SCc2sc(-c3ccc(C(F)(F)F)c(F)c3)nc2C)ccc1OCC(=O)O [GW0742] (first compound 1 µM, partner dose 10 µM)",76.8,94,82.6,83.8,108,79.1,98.7,79.5,92.7,87.7,99.7,78.4,108,90.8,109,84.2,93.2,95.9,88.7
"NC1(c2ccc(-c3nc4ccn5c(=O)[nH]nc5c4cc3-c3ccccc3)cc2)CCC1 + C/C(O)=C(\C#N)C(=O)Nc1cc(Br)ccc1Br [LFM-A13] (first compound 2 µM, partner dose 10 µM)",87.1,102,108,88.6,84,68.5,107,70.4,72.4,92.7,69.2,68.3,89.8,60.9,106,83.2,67.9,87.2,67.5
"O=c1[nH]nc(Sc2ncc([N+](=O)[O-])s2)n1-c1ccc2c(c1)OCCO2 + C/C(O)=C(\C#N)C(=O)Nc1cc(Br)ccc1Br [LFM-A13] (first compound 1 µM, partner dose 10 µM)",113,82.4,99.8,106,75.1,105,92.5,81.4,78.4,91.1,91,97,101,91.1,110,78.5,81.3,91.9,112
"CS(=O)(=O)c1ccc(C(=O)Nc2ccc(Cl)c(-c3ccccn3)c2)c(Cl)c1 [vismodegib] + C/C(O)=C(\C#N)C(=O)Nc1cc(Br)ccc1Br [LFM-A13] (first compound 5 µM, partner dose 10 µM)",86.1,112,101,123,94.4,98.7,97.6,114,80.7,119,87.7,95.7,116,99.9,109,72.7,96.9,129,88.2
"CC(=O)c1c(C)c2cnc(Nc3ccc(N4CCNCC4)cn3)nc2n(C2CCCC2)c1=O [palbociclib] + C/C(O)=C(\C#N)C(=O)Nc1cc(Br)ccc1Br [LFM-A13] (first compound 0.2 µM, partner dose 10 µM)",81.5,88.6,69.2,91.6,97.9,85.9,76.2,60.3,77.4,100,51.4,70.7,78.7,68.3,91.8,62.4,48.9,37.3,53.8
"CS(=O)(=O)c1ccc(C(=O)Nc2ccc(Cl)c(-c3ccccn3)c2)c(Cl)c1 [vismodegib] + O=C(Oc1ccc([N+](=O)[O-])cc1)N1CCC(C(O)(c2ccc3c(c2)OCO3)c2ccc3c(c2)OCO3)CC1 [JZL184] (first compound 5 µM, partner dose 5 µM)",110,112,92.4,140,93.1,98,140,93.5,88.9,113,98.1,108,90,99.6,95.4,72.1,126,99.4,82.6
"COc1ccc(C2=N[C@@H](c3ccc(Cl)cc3)[C@@H](c3ccc(Cl)cc3)N2C(=O)N2CCNC(=O)C2)c(OC(C)C)c1 [Nutlin-3] + O=C(Oc1ccc([N+](=O)[O-])cc1)N1CCC(C(O)(c2ccc3c(c2)OCO3)c2ccc3c(c2)OCO3)CC1 [JZL184] (first compound 0.5 µM, partner dose 5 µM)",75.8,96.4,99.7,109,84.1,97.3,102,86.4,110,70.5,84.3,78.5,88.7,73.7,79.2,44.6,79.7,83.6,82
"Cc1cc(Nc2cc(N3CCN(C)CC3)nc(/C=C/c3ccccc3)n2)n[nH]1 + C/C(O)=C(\C#N)C(=O)Nc1cc(Br)ccc1Br [LFM-A13] (first compound 0.2 µM, partner dose 10 µM)",89,92.9,85,82.4,98.3,82.2,76.7,73.9,90.4,92.4,72,103,82.9,61,94.5,70,91.7,81.7,88.3
"CCCS(=O)(=O)Nc1ccc(F)c(C(=O)c2c[nH]c3ncc(Cl)cc23)c1F + Cc1cc(SCc2sc(-c3ccc(C(F)(F)F)c(F)c3)nc2C)ccc1OCC(=O)O [GW0742] (first compound 0.4 µM, partner dose 10 µM)",69.7,75.3,84,97.1,112,81.8,64.1,93,101,68.7,52.9,83.2,92.1,77.9,90,55.9,60.3,79.4,51.4
"C=CCNC1=C2C[C@@H](C)C[C@H](OC)[C@H](O)[C@@H](C)/C=C(\C)[C@H](OC(N)=O)[C@@H](OC)/C=C\C=C(/C)C(=O)NC(=CC1=O)C2=O [Tanespimycin] + Cc1cc(SCc2sc(-c3ccc(C(F)(F)F)c(F)c3)nc2C)ccc1OCC(=O)O [GW0742] (first compound 0.01 µM, partner dose 10 µM)",89.9,97.3,96.4,93.8,67.7,88.3,97.5,79.7,68.1,98.6,94.9,113,108,91.1,103,93.2,57.6,78.6,77.1
"Cn1sc(=O)n(Cc2ccccc2)c1=O + C/C(O)=C(\C#N)C(=O)Nc1cc(Br)ccc1Br [LFM-A13] (first compound 2 µM, partner dose 10 µM)",98.6,94.7,100,111,74.3,92.8,94.1,95.2,84.2,92.7,74,104,91.8,76.9,97,88,106,103,97.2
"CC(=O)O[C@@]12CO[C@@H]1C[C@H](O)[C@@]1(C)C(=O)[C@H](O)C3=C(C)[C@@H](OC(=O)[C@H](O)[C@@H](NC(=O)OC(C)(C)C)c4ccccc4)C[C@@](O)([C@@H](OC(=O)c4ccccc4)[C@H]21)C3(C)C [Docetaxel] + C/C(O)=C(\C#N)C(=O)Nc1cc(Br)ccc1Br [LFM-A13] (first compound 0.0005 µM, partner dose 10 µM)",21.1,48,47.2,43.9,79.9,51.5,49,26.4,35.2,71.4,26.6,26.4,52.5,34.4,61.8,65.9,35.6,44,55
"CNC(=O)c1cc(Oc2ccc(NC(=O)Nc3ccc(Cl)c(C(F)(F)F)c3)cc2)ccn1 [sorafenib] + C/C(O)=C(\C#N)C(=O)Nc1cc(Br)ccc1Br [LFM-A13] (first compound 2 µM, partner dose 10 µM)",85.2,89.1,89.5,87,113,88.8,92.6,76.3,74.8,132,65.7,84.8,87.1,83.1,88.2,82.2,87.1,81.9,74.2
"CNC(=O)c1cc(Oc2ccc(NC(=O)Nc3ccc(Cl)c(C(F)(F)F)c3)cc2)ccn1 [sorafenib] + O=C(Oc1ccc([N+](=O)[O-])cc1)N1CCC(C(O)(c2ccc3c(c2)OCO3)c2ccc3c(c2)OCO3)CC1 [JZL184] (first compound 2 µM, partner dose 5 µM)",107,90.1,110,92.7,98.5,89.4,104,101,85.6,100,92.7,84,98.5,80.4,74.9,79.5,74.2,106,76.6
